Source: the supplement of paper PMC11417369
Some of the results follow.

These sequences were tested on PfAP2-HC AP2 domain (GST-tagged) (assay: gcPBM binding intensity (ln(normalized median fluorescence intensity)); higher = stronger DNA binding).
Outline: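 GST-fused DNA-binding domains of P. falciparum, expressed in E. coli, were applied at about 25 μg on average for 1 h to an Agilent 4 × 180k array of primer-extended double-stranded 36-bp intergenic genomic probes and negative controls. Binding intensity is the highest Masliner-normalised natural-log median intensity across replicate spots of either probe orientation, measured with Alexa488 anti-GST antibody and a 488 nm scan.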

| Sequence | gcPBM binding intensity (ln) |
| --- | --- |
| TAAATATATTTATATTGTACATTTATGTTGATACCA [XGTACX_site228] | 9.35 |
| TTTTGTGAATTTTAGATTTTTTAATACAAGAATATT [CACACA_negctrl_site606] | 9.1 |
| ATATTTACCACTGTATGTACATATATAAAATATATC [XGTACX_site6373] | 9.85 |
| TATATATATAATATATGTACTGATATGCTATTTACT [XGTACX_site841] | 9.78 |
| ATTTAATTTATTATGTGTACTTATTTAATTAAATTA [XGTACX_site3171] | 9.62 |
| TTATATATTTATAAATGTACATATAATTTTTTTATA [XGTACX_site4696] | 9.52 |
| CTGATATATAGATGTAGTACATAAAAATGACGAATT [XGTACX_site5612] | 9.91 |
| ATATTTTTATTTAAATCACATCATTTTGTTTATTTG [CACACA_negctrl_site1056] | 9.8 |
| CATATAATTATTGAAAGTACATACAAATAAAAAGAT [XGTACX_site6535] | 9.82 |
| AAAAAAATAAAATGTTCACACATTTCACAATTACTT [CACACA_site4859] | 9.75 |
| TGAGCACAAATACAGGTGCATATAAAATATATGACG | 9.85 |
| AGAGGCCAGCTTTCTCTTCTAAACATGTACAAAAAT [GTGCAC_negctrl_site98] | 9.37 |
| AATAGTTAAATGTACACACTAACTACATGGAATATA [CACACA_site3262] | 9.83 |
| TATATATAAAACATATGTACATATATATATATATAT [XGTACX_site419] | 9.63 |
| ATATTTTATAATTTTACACACCATATAAAATAATTC [CACACA_site2797] | 9.64 |
| ACATGAAACTATAAACGTACATACATACATATATAT [XGTACX_site5011] | 9.88 |
| AAGTAAAAAAATAGCACACACACAAAAACACCCACA [CACACA_site1291] | 10.8 |
| ATATATATATAGTGCACACATATAAAATATATATAA [CACACA_site2745] | 10.1 |
| TATAATATATATAGGAGTACGTATGTATATTTATAA [XGTACX_site3521] | 9.83 |
| TTTACAGATACTTGCTCACACATATGTATAAAAATA [CACACA_site4928] | 9.61 |
| TGTATGTTTATTTGATGTACGGTCATACATATAAAT [XGTACX_site5176] | 9.61 |
| AAATTCATATGAATTTGTACGGACATAAATATCTTC [XGTACX_site1838] | 9.66 |

| Sequence | gcPBM binding intensity (ln) |
| --- | --- |
| CTATTTTTTGTATAAACATGCATATAGTAGATATGG [TGCATGCA_site670] | 9.47 |
| TTTAATATTTTTTTTTGTACTTATTTGTAGAAATAT [XGTACX_site3046] | 9.56 |
| AGGCTCATTTTTTTTAGTACATCAAAAAAAAAAAAA [TGCATGCA_negctrl_site591] | 9.1 |
| TTTTACATATACATGTGTACATAACAAAGAATGTTT [XGTACX_site2406] | 9.68 |
| CGCATGTATTTTGTGTGTACTAATTATAATCAACTT [XGTACX_site4709] | 10 |
| TAATATTGTATTTATGTACACACATTTTTGGAATAT [CACACA_site8371] | 9.84 |
| AGTGTATTAATTCTCACACACTAAGAAAAAAAAAAA [CACACA_site6007] | 9.78 |
| TTTTTTAATAAATGGTGTACATATTTTTTTTATACT [XGTACX_site8584] | 9.66 |
| ATTCATAATATTATAACACACGCTTATTACATAAAG [CACACA_site980] | 9.61 |
| ATATATATATATATGTGTACATATGTATATATATCT [XGTACX_site2930] | 9.9 |
| CCCATGTAATGAACATGTACATAATAATTTATAAAT [XGTACX_site8687] | 9.45 |
| AGATGGAGAAAGTTATGTACACATATATAAATATGT [XGTACX_site6150] | 9.68 |
| TATATACATATGTGATGTACATTTTTTGTAATATAA [XGTACX_site6985] | 9.49 |
| TAACACATATATTGTTGTACATTCAAACTGAAAAAT [XGTACX_site5565] | 9.61 |
| TTTTTTTTATTAAAAAGTACTAAACAAATTATATAT [XGTACX_site121] | 9.36 |
| CCATAACTCATATGCACACATAAATATTACATATAT [CACACA_site3821] | 10.1 |
| TTTTAAAAAGAAAAAAATAACATACATATATATATA [CACACA_negctrl_site240] | 9.38 |
| ATGTCTACAGTTTTTGCACACATATAAATAAAAAAA [CACACA_site3600] | 9.77 |
| ATTTTTTTTTTTTTTTTTTTTGAGAAGAACTTTTTC [CACACA_negctrl_site1019] | 9.26 |
| AAACATCATAAATATACACACATATTTATATTTATA [CACACA_site6437] | 9.79 |
| TCAAACGGTTAAATATGTACATATATATATATATAT [XGTACX_site2339] | 9.74 |
| AAAAAAAAAAGACACACACACATATAAATATAAATA [CACACA_site6899] | 11.5 |
